# Values joined by “and” are separate entries in the source; they are usually repeats but may differ in a detail not shown here. Equal entries are not always repeated. The campaign covered roughly 410,000 compounds. About 5,000 (1.2%) were called active. This list was built around the results that the source calls inconclusive (neither active nor inactive); the mix of calls is not that of the screen. Calls come from the whole dose curve; as a rule, active = well fitted inhibition curve with a large enough effect; inconclusive = small, poorly fitted or top-dose-only effect; inactive = no such curve, though single readings can be large or run the other way. Potencies of inconclusive entries are doubtful fits and often do not repeat.
# Assay: qHTS for Inhibitors of TGF-b; note: nearly all actives have a fitted effect of over 65% in size
# Conditions: HepG2 CAGA-GFP TGF-b/SMAD3 reporter, GFP fluorescence, 18 h, TGF-beta stimulated, 500 pg/mL final; series mostly up to 46.1 µM
# Outline: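 HEPG2 CAGA-GFP, 1000 cells/well; 2 h settle, 37 C; cpd via pin tool; TGF-b 500 pg/mL final; 18 h, 37 C; GFP imaging ex488/em500-530; %Activity normalised to -TGF-b and +DMSO controls; CRC fit, curve class.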
# Potency is the fitted concentration of half-maximal effect; tags give direction and shape of the fitted curve.
row,Structure (SMILES),Potency
1,CCOc1ccc2[nH]cc(-c3csc(N)n3)c2c1,inactive
2,CC(NC(=O)CN1CCN(c2cccc(Cl)c2)CC1)c1ccccc1 (stereo not drawn),"inconclusive: 22.4 µM [inhibitor, single point]"
3,Cc1cccc(N2CCN(C(=O)c3ccc4c(Cl)c5c(nc4c3)CCCC5)CC2)c1C,"inconclusive: 0.282 µM [inhibitor, full curve, poor fit]"
4,O=C(CCc1ccccc1)OCCOC(=O)CCc1ccccc1,inactive
5,CCOc1ccc(N(CC(=O)NCc2cccc(OC)c2)S(=O)(=O)c2c(C)noc2C)cc1,inactive
6,CSC1=NCCN1S(=O)(=O)c1ccc(C)cc1,"inconclusive: 5.62 µM [inhibitor, single point]"
7,Cc1cc(S(=O)(=O)N2CCOCC2)ccc1NC(=O)c1ccc(F)cc1,inactive
8,O=S(=O)(NCC1CCCO1)c1ccc(S(=O)(=O)N(Cc2ccccc2F)C2CCCCC2)cc1 (stereo not drawn),"inconclusive: 25.1 µM [inhibitor, single point]"
9,Cc1ccccc1Nc1c(-c2ccc(N3CCOCC3)cc2)nc2cnccn12,inactive
10,CCn1cc(C(=O)NCCc2ccc(C)cc2)c(=O)c2cc(S(=O)(=O)N3CCC(C)CC3)ccc21,inactive
11,Cc1nc2c(C)c(C)c(C)c(C)c2nc1C,inactive
12,CCC1=C[C@@H]2CN(C1)Cc1c([nH]c3ccccc13)[C@@](C(=O)OC)(c1cc3c(cc1OC)N(C)[C@H]1[C@@](O)(C(=O)OC)[C@H](OC(C)=O)[C@]4(CC)C=CCN5CC[C@]31[C@@H]54)C2,"inconclusive: 0.708 µM [inhibitor, full curve, poor fit]"
13,CN(O)C(=S)c1ccccc1,"inconclusive: 0.316 µM [inhibitor, full curve, poor fit]"
14,Cc1cccc(C(=O)NC(=S)Nc2cccc3nc(C)ccc23)c1,"inconclusive: 35.5 µM [inhibitor, single point]"
15,Cc1cccc(C)c1NC(=O)CSc1nc2ccccc2c2nc(CCc3c(C)n[nH]c3C)nn12,inactive
16,Cc1cc(C)nc(Nc2nc(C(N)CCc3ccccc3)cs2)n1 (stereo not drawn),"inconclusive: 31.6 µM [inhibitor, single point]"
17,CN(C)CCCNC(=O)c1ccc(Oc2ccccc2)cc1,inactive
18,COC(=O)c1ccc(NC(=O)C(=O)NCC(c2cccnc2)N2CCc3ccccc32)cc1 (stereo not drawn),"inconclusive: 3.55 µM [inhibitor, full curve]"
19,COc1ccc(OC)c(S(=O)(=O)N2CCC(C(=O)N3CCc4ccccc4C3)CC2)c1,"inconclusive: 3.55 µM [inhibitor, single point]"
20,COc1ccc(-c2cc3ncccc3cn2)cc1,"inconclusive: 0.891 µM [inhibitor, full curve, poor fit]"
21,O=C(c1ccccc1)c1ccc(N2CCOCC2)cc1,inactive
22,CCCCCCn1c(=O)n2n(c1=O)C[C@]1(OC(=O)NCc3ccc(OC)c(OC)c3)CN(S(=O)(=O)c3ccc(C)cc3)C[C@]1(O)C2,"inconclusive: 35.5 µM [inhibitor, single point]"
23,Cc1ccc(Cc2cnc(NC(=O)c3ccco3)s2)cc1,"inconclusive: 6.31 µM [inhibitor, full curve, poor fit]"

row,Structure (SMILES),Potency
1,COc1ccc(OC)c(-n2c(N)c(C(=O)NCC3CCCO3)c3nc4ccccc4nc32)c1 (stereo not drawn),"inconclusive: 35.5 µM [inhibitor, single point]"
2,CCc1ccccc1N(C)C,"inconclusive: 5.62 µM [inhibitor, full curve]"
3,C=CCn1c(=NC(=O)c2cccs2)sc2cccc(OC)c21,"inconclusive: 12.6 µM [inhibitor, partial curve, poor fit]"
4,Nc1nc(N2CCN(C(=O)c3ccco3)CC2)nc2ccc(Br)cc12,"inconclusive: 25.1 µM [inhibitor, single point]"
5,COc1ccc(CNC(=O)CCc2ccc(S(=O)(=O)N3CCCCCC3)cc2)cc1OC,inactive
6,Cc1c(NC(=S)NC(=O)Cc2ccccc2)cccc1C(=O)O,inactive
7,O=C1NC2(CCCCCC2)C(=O)N1Cc1ccc(F)cc1Cl,inactive
8,Cc1cc(C)n(-c2cc(N3CCN(C(=O)c4cccc(Br)c4)CC3)ccc2[N+](=O)[O-])n1,"inconclusive: 20 µM [inhibitor, single point]"
9,CC(=O)NC(=S)Nc1sc2c(c1C#N)CCCCC2,inactive
10,COc1ccc(N(C)C(=O)c2cc3c(s2)-c2c(C)cccc2OC3)c(OC)c1,"inconclusive: 35.5 µM [inhibitor, partial curve, poor fit] and inconclusive: 25.1 µM [inhibitor, single point]"
11,Cc1ccc(NC(=O)c2c(C)oc3c2C2=NCCN2C=N3)cc1F,"inconclusive: 0.112 µM [inhibitor, full curve, poor fit]"
12,CCCS(=O)(=O)c1ncc(Cl)c(C(=O)Nc2c(C(=O)Nc3ccccc3)oc3ccccc23)n1,"inconclusive: 3.98 µM [inhibitor, partial curve, poor fit]"
13,O=C(CCl)Nc1cn(-c2ccccc2)nc1-c1ccc(F)cc1,"inconclusive: 17.8 µM [inhibitor, single point]"
14,CC(=O)[C@@]1(O)CC[C@H]2[C@@H]3CCC4=CC(=O)CC[C@]4(C)[C@H]3[C@@H](O)C[C@@]21C,inactive
15,C/C(=N/NC(=O)c1cc(C(C)C)[nH]n1)c1cccs1,inactive
16,CSCCC(c1nnnn1C1CCCC1)N1CCN(C/C=C/c2ccccc2)CC1 (stereo not drawn),"inconclusive: 22.4 µM [inhibitor, single point]"
17,COC(=O)c1cccc(NC(=O)Nc2ccc(Cl)c(Cl)c2)c1,"inconclusive: 35.5 µM [inhibitor, single point]"
18,COc1ccc(-c2ccc(CN3C(C(C)C)C(=O)N(Cc4cn(Cc5ccco5)nn4)CCS3(=O)=O)cc2)cn1 (stereo not drawn),"inconclusive: 35.5 µM [inhibitor, single point]"
19,CCC1(CC)N([O-])C(C)=C(c2ccccc2)[N+]1=O,"inconclusive: 0.631 µM [inhibitor, full curve]"
20,COC(=O)CC1C(=O)NCCN1C(=O)c1cc(OC)c(OC)cc1OC (stereo not drawn),inactive
21,CN(CC(=O)Nc1nc2ccccc2s1)S(=O)(=O)c1ccc(Cl)cc1,"inconclusive: 35.5 µM [inhibitor, single point]"
22,C/C=C(/C)C(=O)OC(C)(C)[C@@H]1Cc2c(ccc3ccc(=O)oc23)O1,"inconclusive: 35.5 µM [inhibitor, partial curve, poor fit]"
23,O=C(COC(=O)c1cc2c(s1)CCCC2)Nc1ccc(Cl)cn1,inactive

row,Structure (SMILES),Potency
1,Cc1ccc(-n2ncc(C(=O)NC3CCCCC3)c2C2CCN(C(=O)OC(C)(C)C)CC2)cc1,inactive
2,O=C(NCCc1csc(-c2cccnc2)n1)c1ccc(Br)o1,inactive
3,Cn1c(SCc2ccccc2)nc(N)c(N=O)c1=O,"inconclusive: 11.2 µM [inhibitor, partial curve, poor fit]"
4,COc1ccc(C(=O)N2CCC(C)(C(=O)NS(=O)(=O)C3CC3)C2)c(OC)c1 (stereo not drawn),inactive
5,CCCCCc1c(O)nc(SCCN2CCOCC2)[nH]c1=O,inactive
6,NC(=O)c1c(C(F)(F)F)cc(-c2ccccc2)nc1NCCO,"inconclusive: 3.98 µM [inhibitor, single point]"
7,COc1cccc(CNC(=O)C2CCN(C(=O)c3cnn(-c4ccccc4)c3-n3cccc3)CC2)c1,"inconclusive: 15.8 µM [inhibitor, single point]"
8,COc1ccc(-c2cc(C(C)=O)c(C)n2CCC(=O)NCc2ccc(C)cc2)cc1,"inconclusive: 0.447 µM [inhibitor, partial curve, poor fit]"
9,CCOC(=O)c1cc(S(=O)(=O)N2CCN(c3cccc(C)c3C)CC2)[nH]n1,"inconclusive: 3.98 µM [inhibitor, single point]"
10,CC(=O)Nc1cc(C(=O)OCC(=O)c2ccc(Cl)cc2Cl)ccc1C,inactive
11,Cc1cc(C(=O)NC2CCC(O)CC2)c(C)o1 (stereo not drawn),"inconclusive: 5.62 µM [inhibitor, single point]"
12,O=C(CCS(=O)(=O)c1ccccc1)Nc1nc(-c2ccc(F)cc2)cs1,"inconclusive: 35.5 µM [inhibitor, single point]"
13,NC(=O)CC(NC(=O)c1cccc(Br)c1)c1ccc(NC2CCCCCCC2)c([N+](=O)[O-])c1 (stereo not drawn),"inconclusive: 35.5 µM [inhibitor, single point]"
14,O=CC(O)C1OC(=O)C(O)C1O (stereo not drawn),inactive
15,O=S(=O)(CCN1CCN(c2ccccc2O)CC1)c1cc(Cl)ccc1Cl,"inconclusive: 5.62 µM [inhibitor, single point]"
16,CCC(C)(C)n1nnnc1C(c1ccc(C)cc1)N1CCN(Cc2ccc3c(c2)OCO3)CC1 (stereo not drawn),inactive
17,COc1cccc(N2CCN(C(=O)c3cc(-c4ccc(F)cc4)[nH]c3C)CC2)c1,"inconclusive: 35.5 µM [inhibitor, single point]"
18,CN1CCN(S(=O)(=O)c2ccc(Cl)c3ccccc23)CC1,"inconclusive: 17.8 µM [inhibitor, single point]"
19,CCCOc1ccc(C(=O)CCC(=O)OC(C)C(=O)Nc2ccc(NC(C)=O)cc2)cc1 (stereo not drawn),"inconclusive: 22.4 µM [inhibitor, partial curve]"
20,COc1cccc(OC)c1C(=O)N1CCN(Cc2ccc3c(c2)OCO3)CC1,"inconclusive: 1.58 µM [inhibitor, partial curve, poor fit]"
21,N=c1c2c(-c3ccccc3)c(-c3ccccc3)n(Cc3ccccc3)c2ncn1CCCn1ccnc1,"inconclusive: 31.6 µM [inhibitor, single point]"
22,COc1ccc(/C=C/C(=O)c2ccc3c4c(cccc24)CC3)cc1OC,"inconclusive: 17.8 µM [inhibitor, partial curve, poor fit]"

# Source: PubChem BioAssay AID588855 (National Center for Advancing Translational Sciences (NCATS), 2011)
